Among the data in the RNAGym collection of RNA variant scans (doi:10.7554/elife.90254) are self-cleavage values, retold here.

B1: OR4K15 (parent)
chain: GUUAACGGUCAUAGGCCAUGGAAACUAGGAGCACCAUUUCGCUGCCAGUGAAGAAAUGAACAAAGAAAAUCUGGGCCAGGCAGGCAUCAAAAGAAAUAGUCUUGCGCUCAACCAGAAAGUCUGUAAUCAUUUUAAGGGUA

Read counts are not given, so values of variants with three or more changes are uncertain.

The variants in the data set derive from B1. Nature of the data set: self-cleavage, relative activity (ratio to wild type); higher = more cleavage; in vitro, sequencing; the parent is a self-cleaving ribozyme.
In the case of A18G U103G A114U, the self-cleavage was 0.01. For the variant A18G U19C A22G U57C A59U A78U U132C, the self-cleavage stood at 0.18. The result for A18U U37C U72C reads 0.25. The result for A18U U57G A94G A118G U122A U130C reads 0.88; that for A18G A63U A126G, 1.1. Take A18U A22G A24G A78U U103C: the self-cleavage came out at 0.12.

Turning to A18G A51G A90G, the self-cleavage amounted to 1.13. As for A18G A30G A98G U120C, the self-cleavage came out at 0.46.

Regarding A18U A59G A96G, the self-cleavage turned out to be 1.1. The same measure for U19A A82G U87G U108A: 0.04; for U19C A23G A52G U132A: 0.35. The result for A18U A33G A52G A118G reads 0.35; that for U19C A30G A111G, 0.1. The same measure for A18U A36U C42U A94G: 0.71. As to U19A A22G A69G A116G, the self-cleavage was found to be 0.83. The same measure for U19A U103G A117G U127C: 0.04. On to U19C A23G A30G A52C A68G, for which the self-cleavage came out at 0.87. As to U19A U108C U122C, the self-cleavage was 0. Take U19C A22U A63U A110G: the self-cleavage was 0.15. As for A18G U39C U108C, the self-cleavage is 0.03.

A18G A30G U57C U130C: the self-cleavage turned out to be 0.82. The result for A18U A66G U72C A78G A92G reads 0.14. On to A18G A78U U103C U130C, for which the self-cleavage was found to be 0.06. The result for U19C A47U C71A reads 0.24; that for A18G U38C A117G U131C, 2.15. The result for U19A A59U A89G A116U reads 0.17. A18G A54G A89G A116G U131C: the self-cleavage was determined as 0.04.

Regarding A18G A30U U87A A98U A126G, the self-cleavage is 1.01. Take A18G A86G G106A: the self-cleavage is 0.01.

For the variant A18U U37C U108C, the self-cleavage was determined as 0.01.

Regarding U19C A51G U72C U87C U122C U132C, the self-cleavage is 0.04. The same measure for A18U A66G U103A U120C: 0.56; for A18U A33U G106U A117G: 0.01. As for U19A A22G A54U A68U, the self-cleavage came to 1.82. The result for A18U A22U U26A A86G U103C U122C reads 0.76; that for A18U A52G U130C U139C, 0.29; that for A18G A62G A67G A69G U72C U100A, 0.12. The same measure for A18G A52G A69U U72C A117G A135U: 0.51; for U19C A23G G73A U139C: 0.28; for A18G C45U A54G A129G: 1.13.

As to A18U A22U U38C, the self-cleavage was 1.48. On to A18U A64G A89G, for which the self-cleavage was 1.18. The result for U19C A22G A59G A92G A95G reads 1.87. The same measure for U19A A67G A126G: 0.19; for A18G U19A G41U A78G U100C U120A: 0.62. The same measure for A18G C35U A68G A82G: 0.31.

Take A18U A52G A60G U72C G80C: the self-cleavage was 0.02.

As for A18U A89G A91G A117G A129G, the self-cleavage came out at 1.79. The result for A18G A51G A126G U132C reads 0.81; that for A18G U97C U132C, 1.39; that for A18U A22G A69G U72G C101U U130C, 0.08. In the case of A18G A30G A126G A140U, the self-cleavage was 0.84. The result for A18G A54G A68G A89U reads 1.7; that for U19A A52G A55G U87C C88U A95C, 1.02; that for A18G U39C U97G U122C, 1.61. The same measure for A18U A64G A118G: 1.74. The same measure for A18U A33G A60G: 0.6; for A18U A33G A60U: 1.13; for A18U A62G A90G: 1.69. On to A18U A24G A125G, for which the self-cleavage amounted to 0.24. A18G A67G A91G: the self-cleavage turned out to be 1.39. With A18G A47G A111G, the self-cleavage came to 0.03. Take U19C A52G U70C A118G U130A: the self-cleavage stood at 0.26. The same measure for A18U U49A U70C C113U: 0.03; for A18G U57C A59G: 1.58; for A18U U49A A114U: 0.03. As to A18G U49C A64G, the self-cleavage was found to be 1.22.

For U19A A111U U122C, the self-cleavage came to 0.

In the case of U19C A23G A94G U122C A140G, the self-cleavage came to 1.26. The same measure for A18U U37C A140G: 1.25. The result for A18G U57A U130A reads 0.34. The same measure for A18U C45A A66G: 0.73. On to U19C A47G A94G, for which the self-cleavage came to 1.45.

Regarding U19A A55G A94G, the self-cleavage amounted to 0.47. Consider A18U A52G A64G A129C A140U, for which the self-cleavage came to 0.87. With U19A U57A A96G A114G, the self-cleavage worked out at 0.29. In the case of A18G A89G A95G A117G, the self-cleavage is 0.95. The result for U19A A47G A51G A52C U100A reads 0.34; that for U19A A67G A68G, 1.3.

Turning to A18G A82U U87C, the self-cleavage was 0.09.

For the variant A18G U108C A135G, the self-cleavage is 0. A18G A30G U87C: the self-cleavage was determined as 0.9. With A18G A59G G75A, the self-cleavage came out at 0.15. The same measure for U19A A67G U120A: 2.1.

For the variant A18G A95G A114G, the self-cleavage amounted to 1.76. The result for U19A A59G A86G A95G reads 1.12.

In the case of U19A A36G U87C, the self-cleavage stood at 1.45.

For the variant A18U U49C A60G A78U, the self-cleavage was found to be 0.18. As to U19C A52G U57C A59G C113U, the self-cleavage stood at 0.1. The same measure for U19A A22G A55G A90C A126G: 0.57; for A18G G74U A82U: 0.15; for A18U U38C A94G U100C: 1.41.

Turning to A18G A63G A67G, the self-cleavage is 0.81. The result for U19A A24G A95G reads 1.51. The same measure for A18G U70C A125U A129G: 0.27. Take U19C A23G C42A A89G: the self-cleavage was 0.21. U19C A59G U72A: the self-cleavage is 0.2. With A18U A67G A92G, the self-cleavage turned out to be 0.27. The result for U19C A51G U87C A114G reads 0.32; that for A18U A22G A82U A89G A96G, 0.2. As for U19A A55G U100C A116U, the self-cleavage came to 0.47.

As to U19C A33G A59G U108C, the self-cleavage is 0.02.

Consider U19C A36U A59G, for which the self-cleavage is 0.84.

Take A18G A91G A98U U100A A110G: the self-cleavage is 0.13. A18G A60G A95G: the self-cleavage came to 2.34. The same measure for U19A A24G U37C A92G: 1.34; for U19A G28C U38A U57G: 0.51. Regarding A18G G79A A118G, the self-cleavage turned out to be 0.08. As to A18G A55G U102C U122C, the self-cleavage stood at 1.43. U19A U37C U49C A114G: the self-cleavage was 0.1. The same measure for U19A A110G A126G: 0.12. The result for A18U A23G A56G A59G C128A reads 1.12; that for U19C A22G A55G A66G A111G U127A, 0.05; that for A18U U26C U127C, 0.7. The result for A18U A59G A125G U127C reads 0.44; that for A18U A63G A64G G84U A89G A90G, 0.44. For A18G U122C A129G, the self-cleavage amounted to 1.73. Regarding A18U A59G A63C A78U A86G A129G, the self-cleavage amounted to 0.14. The result for A18U U37C A51G U97C reads 0.85. The same measure for A18G A55U A92G: 0.9.

Regarding A18G A89G G136A, the self-cleavage stood at 1.56. As to A18U U38C A126C A140U, the self-cleavage is 0.24.

U19C A62G A94U: the self-cleavage came out at 0.39. As to A18U A116G U120C U133A, the self-cleavage was 0.27.

As for A18G A51U A64G A67G C112U A117G U122C, the self-cleavage came out at 0. Turning to A18U U43A A116G, the self-cleavage is 0.46. The same measure for A18U A52G A140G: 1.82. As for U19C A23G A51G U87A A91G A96G U108A U127A, the self-cleavage was 0.03. The same measure for A18G U37C A64G A69G: 0.93. With U19C A56G C61A U139C A140G, the self-cleavage amounted to 1.97. Consider A18U A68G A98U, for which the self-cleavage worked out at 1.29.

Take A18G G20U U87A A91C: the self-cleavage was 2.39. In the case of A18U U38C A59G, the self-cleavage came to 1.38. The same measure for A18U A30G U72A U139A: 0.37; for U19C A33U U37G U43G A56G: 1.35. For the variant A18G U39C A78U A86G U102A, the self-cleavage was 0.17. Turning to U19C A59G U72C A78G, the self-cleavage amounted to 0.31.

On to A18U A62G U97C, for which the self-cleavage was found to be 1.89. The same measure for A18G A68G U103A: 0.66.

Turning to U19C A22G A66U, the self-cleavage came to 2.37. With U19C A60G A64G U87A, the self-cleavage is 0.79. On to A18G A52G A59G A67G G138A, for which the self-cleavage is 1.06. The result for U19C A24U A33G C81U reads 0.12. The result for A18U U43C A95G A110G reads 0.17. The result for A18G C88U U130C reads 1.98; that for A18G A63G A64G U108C A129U U132C G138U, 0.01. Take A18G A55G A78G A110G: the self-cleavage was 0.11. The result for A18G A60G U100C reads 1.88. Consider U19A A86G A89G U103C G138A, for which the self-cleavage worked out at 0.17.

U19C A24G A62U: the self-cleavage is 1.34. The same measure for A18G U49C U72A A95G U139G: 0.24; for U19A A118G U122G: 1.67; for A18G A66G U131C: 1.38.

On to U19C A33U A56G U70C U87C U103C, for which the self-cleavage came to 0.2. On to U19A A62G A66G U122C, for which the self-cleavage came out at 0.84. A18G A94G A114G: the self-cleavage was 0.27. The result for A18U A54G A60G U72A A78G C109U reads 0.13.

A18G A62U A111U: the self-cleavage was determined as 0.27. Turning to U19C A59G A82G U100C, the self-cleavage amounted to 1.06. The result for A18G A96C U103C reads 0.19. Turning to U19A A69U G136U, the self-cleavage was 1.9.

Regarding A18G U57C A94G, the self-cleavage was determined as 1.84. The same measure for U19C A36C A51U A140U: 1.82; for A18U A36U U102C A114G A116U: 0.06. The same measure for A18G A91U A116G A117G: 0.11. Consider A18G U38C A78G, for which the self-cleavage came to 0.25.

As for A18U G75C U87C, the self-cleavage was found to be 0.23.
